Some of the results follow. The full chains were built here from the parent and the listed change. Values near 0.05 are background.
B1: TEV protease; numbered along this chain (parent)
chain: MGESLFKGPRDYNPISSSICHLTNESDGHTTSLYGIGFGPFIITNKHLFRRNNGTLVVQSLHGVFKVKDTTTLQQHLVDGRDMIIIRMPKDFPPFPQKLKFREPQREERICLVTTNFQTKSMSSMVSDTSCTFPSGDGIFWKHWIQTKDGQCGSPLVSTRDGFIVGIHSASNFTNTNNYFTSVPKNFMELLTNQEAQQWVSGWRLNADSVLWGGHKVFMVKPEEPFQPVKEATQL

Variants of: B1
Experiment: raw area under fraction-flipped curve 0-4 h after induction (AUC4h, not background-subtracted), DNA-recorder readout of cleavage of the substrate (dimensionless); higher = more cleavage of the substrate by the protease variant
Details: temperature: 34 °C; time window: 0-4 h after rhamnose induction
Description: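 In vivo DNA recorder in E. coli TOP10(DE3) ΔrhaA at 34 °C. Each TEVp single-site mutant (parent TEVp 0) is paired with a single-site variant of the 7-mer TEVs (canonical ENLYFQ|S). The substrate sits between flexible linkers in a Bxb1-sfGFP-TEVs-SsrA fusion, so cleavage stabilises Bxb1 and speeds flipping of a recombination array, read by NGS. The value is the raw area under the fraction-flipped curve over 0-4 h after rhamnose induction (AUC4h), with ≥20 reads per time point. It is not background-subtracted; inactive controls average about 0.047.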
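Further: Bxb1 expression induced with 0.2% (w/v) L-rhamnose at OD600 near 0.5, cultures sampled hourly, flipped fraction per protease–substrate barcode pair counted by paired-end Illumina sequencing.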

Variant | area with substrate CNLYFQS | area with substrate DNLYFQS | area with substrate GNLYFQS | area with substrate HNLYFQS | area with substrate KNLYFQS | area with substrate LNLYFQS | area with substrate QNLYFQS | area with substrate SNLYFQS | area with substrate TNLYFQS | area with substrate WNLYFQS | area with substrate YNLYFQS | area with substrate FNLYFQS | area with substrate INLYFQS | area with substrate MNLYFQS | area with substrate NNLYFQS | area with substrate PNLYFQS | area with substrate RNLYFQS | area with substrate VNLYFQS
K98M | 0.0671 | 0.0805 | 0.0704 | 0.0555 | 0.0762 | 0.0665 | 0.0701 | 0.0548 | 0.0698 | 0.0577 | 0.0654 | – | – | – | – | – | – | –
K98T | 0.0788 | 0.076 | 0.0722 | 0.0592 | 0.0635 | 0.0656 | – | 0.0714 | – | 0.0533 | 0.0763 | 0.0716 | 0.0721 | 0.0713 | 0.0242 | 0.0738 | 0.0648 | 0.071
L99P | 0.0447 | 0.069 | – | 0.0737 | 0.0614 | 0.0559 | – | 0.0728 | 0.0742 | 0.046 | – | 0.0617 | – | 0.0678 | 0.086 | 0.0671 | 0.0624 | –
K100F | 0.0639 | 0.0702 | – | 0.0597 | 0.071 | – | – | – | 0.0503 | 0.0751 | – | – | – | 0.0516 | 0.0551 | – | – | 0.0682
K100H | 0.0664 | 0.0936 | – | 0.0432 | 0.0677 | – | – | 0.0727 | – | 0.0621 | 0.0553 | 0.075 | – | 0.0713 | 0.067 | 0.075 | 0.0718 | 0.0794
K100I | 0.065 | 0.0737 | 0.0732 | – | – | – | – | 0.0811 | 0.0722 | 0.0739 | 0.0581 | – | 0.0614 | – | – | 0.0743 | – | –
F101K | 0.0454 | 0.065 | – | – | – | – | – | – | – | – | – | – | – | – | – | 0.0659 | – | –
E103H | 0.0658 | 0.056 | – | 0.0608 | – | 0.0736 | – | 0.061 | 0.0754 | – | – | 0.0517 | – | 0.0703 | 0.0669 | 0.061 | – | 0.049
